Results published in PubChem BioAssay AID1240 (Sanford-Burnham Center for Chemical Genomics, 2008).
In all, about 50,000 compounds went through this assay and about 800 (1.6%) showed an effect of 50% or more. The list shows a part of the results.

Biological target: Bcl-2-like protein 10 (Homo sapiens) (UniProt Q9HD36)
Test: Phenotype converters, Bcl-B/TR3 peptide binding displacement, primary biochemical FP (AID 1240);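 also: 0% = Bcl-B with tracer peptide and DMSO and 100% = tracer peptide lacking Bcl-B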
Details: GST-Bcl-B / FITC-TR3 peptide fluorescence polarization; stronger effect = higher value; compound at 3.75 mg/L

Sequence of UniProt Q9HD36 (Q9HD36 whole entry, looked up): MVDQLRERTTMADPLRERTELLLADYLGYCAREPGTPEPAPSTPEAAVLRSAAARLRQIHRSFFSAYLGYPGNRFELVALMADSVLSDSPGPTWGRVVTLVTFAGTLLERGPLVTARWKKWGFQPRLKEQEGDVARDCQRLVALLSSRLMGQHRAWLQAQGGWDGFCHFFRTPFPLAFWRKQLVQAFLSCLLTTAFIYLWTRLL

Question: `O=C(/C=C/Nc1ccc([N+](=O)[O-])cc1Br)c1ccccc1` was tested. Which displacement did it give?
Answer: Its displacement is 6.5%.

Question: For `O=C1NC(=O)N(c2ccccc2)C(=O)/C1=C\c1ccc(Br)o1`, which displacement is on record?
Answer: The displacement was -3.2%.

Question: For `Cc1ccc(NC(=O)COC(=O)c2ccn(C)n2)cc1`, which displacement is on record?
Answer: Its displacement is 13.5%.

Question: How did the displacement turn out when `COCCOC(=O)c1ccc(NC(=O)COc2ccc(C)cc2)cc1` was run?
Answer: Its displacement is -5.3%.

Question: For `Cn1/c(=N\N=C\c2ccc(Br)cc2)sc2ccccc21`, which displacement is on record?
Answer: Its displacement is -6%.

Question: Which displacement does the source give for `Cc1ccc(NC(=O)C(c2ccccc2)c2ccccc2)c(C)c1` here?
Answer: Its displacement is 14.9%.

Question: How did the displacement turn out when `C=C(C)COc1ccc2cc(-c3nc4ccccc4s3)c(=O)oc2c1` was run?
Answer: Its displacement is 66.5%.

Question: With `COc1ccc(C2/C(=C(\O)c3ccc(F)cc3)C(=O)C(=O)N2CCCCCC(=O)O)cc1OC` (stereo not given) as the compound, how does the displacement read?
Answer: Its displacement is -2.9%.

Question: `O=C(NNC(=O)c1ccc(Cl)c([N+](=O)[O-])c1)c1ccccc1` was tested. Which displacement did it give?
Answer: Its displacement is -4.4%.

Question: Which displacement does the source give for `O=C1NC2(c3ccccc3)NC(=O)NC2(c2ccc(C34NC(=O)NC3(c3ccccc3)NC(=O)N4)cc2)N1` (stereo not given) here?
Answer: Its displacement is 1.8%.

Question: For `S=C(NCc1ccco1)Nc1ccccc1`, which displacement is on record?
Answer: Its displacement is -3.5%.

Question: Which displacement does the source give for `COC(=O)C1=CNC=C(C(=O)OC)C1c1cccc(Oc2ccccc2)c1` here?
Answer: Its displacement is 36.3%.

Question: For `COc1ccc(/C=C/C(=O)NC(C)Cc2ccccc2)cc1OC` (stereo not given), which displacement is on record?
Answer: The displacement was -5.6%.

Question: `O=C1/C(=C\c2ccsc2)SC(=S)N1c1cccc(C(F)(F)F)c1` was tested. Which displacement did it give?
Answer: The displacement was 14.5%.

Question: How did the displacement turn out when `COc1cccc(OCc2nc(-c3ccccn3)no2)c1` was run?
Answer: The displacement was -8.6%.

Question: How did the displacement turn out when `Cc1ccc([N+](=O)[O-])cc1N1C(=O)C2C(C1=O)C1(C)C(=O)C2(C)C(c2ccccc2)=C1c1ccccc1` (stereo not given) was run?
Answer: The displacement was 2.2%.

Question: For `N#C/C(=C/c1ccc(-c2ccccc2C(=O)O)o1)C(=O)Nc1cccc(Br)c1`, which displacement is on record?
Answer: The displacement was -11.7%.

Question: Which displacement does the source give for `CC1CN(C(=O)c2cnn(-c3ccccc3)c2NC(=O)c2cccc(F)c2)CC(C)O1` (stereo not given) here?
Answer: The displacement was -1.7%.

Question: How did the displacement turn out when `CC(=O)c1ccc(NS(=O)(=O)c2ccccc2[N+](=O)[O-])cc1` was run?
Answer: The displacement was -1.3%.

Question: How did the displacement turn out when `Cc1ccc(-c2nn(-c3ccccc3)cc2C=O)o1` was run?
Answer: Its displacement is -0.3%.

Question: With `O=[N+]([O-])c1cccc(S(=O)(=O)Nc2ccc(Nc3ccccc3)cc2)c1` as the compound, how does the displacement read?
Answer: Its displacement is 3%.

Question: How did the displacement turn out when `CC(=O)NC(CC(C)C)C(=O)NC(=O)NCc1ccccc1` (stereo not given) was run?
Answer: Its displacement is -2.7%.

Question: How did the displacement turn out when `CC(=O)Nc1ccc(-c2nc(-c3ccccc3)c(-c3ccc(Br)cc3)[nH]2)cc1` was run?
Answer: Its displacement is 6.9%.

Question: Which displacement does the source give for `COc1cccc(C2NC(=O)NC(C)=C2C(=O)Nc2ccc(C)c(Cl)c2)c1OC` (stereo not given) here?
Answer: Its displacement is 11.3%.

Question: For `COc1ccc(C(=O)NCc2ccc(S(N)(=O)=O)cc2)cc1[N+](=O)[O-]`, which displacement is on record?
Answer: Its displacement is 0.5%.

Question: For `Nc1c(C(=O)c2ccccc2)c(-c2ccccc2)nc2nonc12`, which displacement is on record?
Answer: The displacement was -3.4%.

Question: For `CC(C)N1CCN(C(=O)c2ccc(-c3ccccc3)cc2)CC1`, which displacement is on record?
Answer: The displacement was -74.4%.

Question: For `O=C(Nc1cccc(F)c1)/C(=C\c1cccs1)NC(=O)c1cccs1`, which displacement is on record?
Answer: Its displacement is 1.3%.

Question: With `COc1ccc(CCNC2CC(=O)N(c3ccc(C)cc3)C2=O)cc1` (stereo not given) as the compound, how does the displacement read?
Answer: Its displacement is -4.7%.

Question: `CCOC(=O)c1cnn2c(C)cc(-c3ccc(OC)cc3)nc12` was tested. Which displacement did it give?
Answer: The displacement was 6.8%.

Question: `O=c1oc2c3c4c(cc2cc1CCO)CCCN4CCC3` was tested. Which displacement did it give?
Answer: The displacement was 75.8%.

Question: Which displacement does the source give for `O=C(Nc1cccc(Cl)c1)C1(c2ccccc2)CC1(Cl)Cl` (stereo not given) here?
Answer: The displacement was -5.3%.

Question: Which displacement does the source give for `COC(=O)c1c(NC(=S)Nc2ccccc2)sc2c1CCCC2` here?
Answer: Its displacement is -8.7%.

Question: Which displacement does the source give for `COc1ccc(OC)c(NC2=NC3(CCCC3)N=C(N)N2)c1` here?
Answer: The displacement was -3.5%.

Question: `CCc1nc2c(C)cc(C)cc2c(N)c1C` was tested. Which displacement did it give?
Answer: The displacement was -17.9%.

Question: How did the displacement turn out when `O=P(c1ccccc1)(c1ccccc1)c1nc(-c2ccc(Cl)cc2)oc1N1CCOCC1` was run?
Answer: Its displacement is -2%.

Question: Which displacement does the source give for `CCCCC/C(C)=C(\C#N)C(=O)OCC` here?
Answer: The displacement was 20.9%.

Question: `Cc1ccc(C)c(-c2csc(N)c2C(=O)OC(C)C)c1` was tested. Which displacement did it give?
Answer: Its displacement is -4.4%.

Question: For `O=[N+]([O-])c1ccc(OCC(O)CN2CCCCC2)cc1` (stereo not given), which displacement is on record?
Answer: Its displacement is -3.8%.

Question: For `O=C(CSc1nnc(CN2C(=O)c3cccc4cccc(c34)C2=O)n1-c1ccccc1)NCc1ccco1`, which displacement is on record?
Answer: The displacement was 1%.

Question: For `Cc1cc(F)ccc1NC(=O)c1ccccc1`, which displacement is on record?
Answer: The displacement was 2.3%.

Question: For `Cc1cc(Cl)ccc1OCC(=O)Nc1ccc2ccccc2c1`, which displacement is on record?
Answer: The displacement was 2.1%.

Question: For `COc1cccc2c1NC(c1ccccc1Cl)C1CC=CC21` (stereo not given), which displacement is on record?
Answer: Its displacement is 20.4%.

Question: Which displacement does the source give for `COC(=O)c1sc(NC(=O)C2CCCC2)c(C(=O)OC)c1C` here?
Answer: The displacement was -5.9%.

Question: Which displacement does the source give for `O=C(NNC(=O)c1ccc2ccccc2c1)c1ccc(Cl)cc1` here?
Answer: Its displacement is -5.2%.

Question: `CCOC(=O)c1cnn(-c2ccccc2)c1NC(=O)c1cccc(F)c1` was tested. Which displacement did it give?
Answer: The displacement was -4.2%.

Question: For `O=C(O)c1ccccc1C=Nc1ccc2[nH]c(=O)[nH]c2c1`, which displacement is on record?
Answer: Its displacement is 6%.

Question: Which displacement does the source give for `COc1ccccc1/C=C1\SC(=N)N(c2ccc(F)cc2)C1=O` here?
Answer: The displacement was -8.6%.

Question: Which displacement does the source give for `O=C(c1nn2c(c1Br)NC(c1cccs1)CC2C(F)(F)F)N1CCCC1` (stereo not given) here?
Answer: The displacement was -1.1%.

Question: For `COc1ccc(C2CC(=O)C3=C(C2)Nc2ccccc2NC3c2c(Cl)cccc2Cl)cc1` (stereo not given), which displacement is on record?
Answer: The displacement was 15%.

Question: With `CCOC(=O)c1sc(NC(=O)COc2c(C)cccc2C)c(C(=O)OCC)c1C` as the compound, how does the displacement read?
Answer: Its displacement is 0%.

Question: With `COc1cccc(C2/C(=C(\O)c3ccccc3)C(=O)C(=O)N2c2cccnc2)c1` (stereo not given) as the compound, how does the displacement read?
Answer: Its displacement is -3.6%.

Question: Which displacement does the source give for `Cc1ccc(OCCCCNC(=O)C(O)(c2ccc(F)cc2)c2ccc(F)cc2)cc1` here?
Answer: Its displacement is 2.2%.

Question: `Cc1ccccc1OCC(=O)Nc1ccc(Cl)c(C(F)(F)F)c1` was tested. Which displacement did it give?
Answer: Its displacement is -9.7%.

Question: With `CC(=O)Nc1ccc(C(=O)/C=C/c2ccc(/C=C/C(=O)c3ccc(NC(C)=O)cc3)cc2)cc1` as the compound, how does the displacement read?
Answer: The displacement was 8.5%.

Question: How did the displacement turn out when `O=C(CCc1ccccc1)Nc1ccc(Cl)cn1` was run?
Answer: Its displacement is -10.4%.

Question: For `CCc1ccccc1NC(=O)C1(c2ccccc2)CC1(Cl)Cl` (stereo not given), which displacement is on record?
Answer: The displacement was -14.1%.

Question: `COc1ccccc1NCN1C(=O)CSC1=O` was tested. Which displacement did it give?
Answer: The displacement was 17.7%.

Question: Which displacement does the source give for `O=C(Nc1ccc(Cl)c(C(F)(F)F)c1)c1ccccc1I` here?
Answer: Its displacement is 0%.

Question: `CS(=O)(=O)N1CCN(Cc2ccccc2F)CC1` was tested. Which displacement did it give?
Answer: Its displacement is 13.2%.

Question: Which displacement does the source give for `CCCOCc1ccc(O)c2ncccc12` here?
Answer: The displacement was 15.4%.

Question: How did the displacement turn out when `O=C1CC(N2CCN(c3ncccn3)CC2)C(=O)N1c1ccc(Br)cc1` (stereo not given) was run?
Answer: Its displacement is -4.1%.

Question: With `Cc1onc(-c2ccccc2Cl)c1C(=O)NC12CC3CC(CC(C3)C1)C2` as the compound, how does the displacement read?
Answer: Its displacement is 1%.

Question: For `Cc1ccc(Cl)cc1-c1ccc(C=Nc2ccc(N3CCOCC3)cc2)o1`, which displacement is on record?
Answer: The displacement was -10.4%.

Question: With `COc1ccc(-c2c3c(c(-c4ccccc4)n2-c2ccc(S(N)(=O)=O)cc2)C(=O)c2ccccc2C3=O)cc1` as the compound, how does the displacement read?
Answer: Its displacement is -5%.

Question: Which displacement does the source give for `O=C1/C(=C/C=C/c2ccccc2)SC(=S)N1CCS(=O)(=O)O` here?
Answer: Its displacement is 16.7%.

Question: How did the displacement turn out when `CCOc1ccc(NC(=S)NC2CCCC2)cc1` was run?
Answer: Its displacement is -8.1%.

Question: `Cc1ccc(C(=O)Nc2ccccc2C(=O)NC(C)C(=O)O)cc1` (stereo not given) was tested. Which displacement did it give?
Answer: The displacement was -4.9%.

Question: For `COc1ccc2c(c1OC)C(=O)N(c1ccccc1C)C2=O`, which displacement is on record?
Answer: Its displacement is -1.3%.

Question: With `COCCCNC(=O)c1c(-c2ccccc2Cl)noc1C` as the compound, how does the displacement read?
Answer: The displacement was 12.1%.
